In the supplement of paper PMC3334620:
Whole data set: some 33,000 sequences, median “E-score (-0.5 to 0.5)” near -0.012, cut for the highest 2% near 0.29. The list shows a part of the results.

target: T1, Ybr033w (UniProt P38073); test: PBM E-score (8-mer binding enrichment) (E-score (-0.5 to 0.5)); higher = stronger / more preferred TF binding; most listed sequences are background and not binding sites; conditions: protein concentration: 200 nM; construct: GST-full length
T1 sequence: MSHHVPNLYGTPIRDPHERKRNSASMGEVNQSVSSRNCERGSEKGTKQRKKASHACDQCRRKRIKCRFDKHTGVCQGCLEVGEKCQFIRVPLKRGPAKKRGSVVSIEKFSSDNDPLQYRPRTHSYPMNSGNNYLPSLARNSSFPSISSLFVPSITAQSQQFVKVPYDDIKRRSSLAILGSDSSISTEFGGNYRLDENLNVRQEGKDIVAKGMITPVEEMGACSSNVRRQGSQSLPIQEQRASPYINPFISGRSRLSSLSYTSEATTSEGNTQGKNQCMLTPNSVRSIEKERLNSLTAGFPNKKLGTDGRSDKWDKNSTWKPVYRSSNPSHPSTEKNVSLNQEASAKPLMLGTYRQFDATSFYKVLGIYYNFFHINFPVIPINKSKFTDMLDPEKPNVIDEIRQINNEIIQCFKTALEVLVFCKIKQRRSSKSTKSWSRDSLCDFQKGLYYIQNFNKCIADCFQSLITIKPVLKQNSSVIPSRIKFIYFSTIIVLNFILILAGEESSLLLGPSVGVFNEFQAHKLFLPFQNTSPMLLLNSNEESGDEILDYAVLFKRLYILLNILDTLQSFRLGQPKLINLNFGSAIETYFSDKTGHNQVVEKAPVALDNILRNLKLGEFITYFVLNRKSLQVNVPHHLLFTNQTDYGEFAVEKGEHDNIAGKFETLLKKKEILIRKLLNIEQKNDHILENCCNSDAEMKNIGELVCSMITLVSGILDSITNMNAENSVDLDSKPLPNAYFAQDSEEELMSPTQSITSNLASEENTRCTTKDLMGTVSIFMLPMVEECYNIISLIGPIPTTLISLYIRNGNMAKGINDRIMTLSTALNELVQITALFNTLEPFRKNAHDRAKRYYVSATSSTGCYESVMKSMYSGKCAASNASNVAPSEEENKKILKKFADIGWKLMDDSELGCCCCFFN
Outline: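 Universal all-10-mer Agilent arrays, double-stranded by primer extension on fresh or once-stripped slides, were probed with about 100-200 nM GST-tagged yeast transcription factors made by PURExpress. Fluorescent anti-GST detected bound protein, and masliner normalised the scans. E-scores from the Universal PBM Analysis Suite were given to each ungapped eight-base word pooled with its reverse complement.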

| Sequence | PBM E-score |
| --- | --- |
| AGATTCAC | -0.0233 |
| AACCAGCC | -0.0273 |
| ACGTGTTC | -0.114 |
| TACGCTAA | 0.0698 |
| TATATGGA | 0.0384 |
| CAAAAAAA | 0.293 |
| CATCAGCG | -0.188 |
| AGTTCCAC | 0.12 |
| ACCTAGAT | -0.147 |
| CGTCCGTA | -0.142 |
| CAACAATC | 0.256 |
| CTTGTCCA | 0.0362 |
| CTTATTTA | 0.106 |
| TAGGCCGA | -0.0928 |
| GCACCGGA | -0.12 |
| CCAATACC | -0.0674 |
| AAAAGGTC | -0.122 |
| CAACATGC | 0.101 |
| CTGTTTTA | 0.206 |
| CGAGTGGA | 0.0174 |
| CACGTACG | -0.121 |
| AGACGGTC | -0.222 |
| TGAGAGAA | 0.0793 |
| ATAGCGAA | 0.153 |
| GTCACAGA | -0.043 |

| Sequence | PBM E-score |
| --- | --- |
| CAACTCGC | 0.0613 |
| CCCTCTAA | -0.184 |
| CAGGGTCG | -0.201 |
| AGGTTCCG | 0.00362 |
| AAAGATCC | 0.3 |
| CTCTTTTA | -0.0348 |
| AGCCATAC | -0.196 |
| TGCACAAA | 0.0788 |
| CCCGGATC | 0.0588 |
| CACTGCAC | -0.0225 |
| AGTTCTTG | 0.203 |
| CTTTTTAC | 0.126 |
| AAGATCGT | -0.0522 |
| CGGAATAA | 0.468 |
| ATGGTAAA | 0.187 |
| CACACAGG | -0.125 |
| AAATCGTA | 0.269 |
| GTGTGTGA | 0.0756 |
| GAATGGTA | 0.0656 |
| ATGGCAAC | -0.0208 |
| GTTCTTCA | -0.14 |
| CGCTGTCA | -0.264 |
| ACCAGTTA | 0.0115 |
| CCGTTTAA | 0.169 |
| AGTGTCTC | -0.116 |

| Sequence | PBM E-score |
| --- | --- |
| AATCCTCG | 0.102 |
| ACAGACTC | -0.0761 |
| GATGTTGC | 0.0334 |
| CACCCACG | -0.0887 |
| ATATGGCA | 0.0327 |
| GCTGCCAA | -0.13 |
| TTCGACAA | 0.0957 |
| ACTTCCCC | -0.326 |
| ACGTGCAT | -0.12 |
| CTAGCACA | -0.126 |
| CGAGTAAC | 0.124 |
| CCCCAACG | -0.112 |
| GTGTATCA | 0.178 |
| GCTGCGGA | 0.0313 |
| GGACCCTA | -0.235 |
| ACAACAAG | 0.203 |
| CAGCACAC | -0.198 |
| AAGTTAGG | 0.0258 |
| ACTCCATC | 0.21 |
| AGTGTCAG | -0.0511 |
| CTTAGGGA | -0.168 |
| ACTCGTCA | 0.0162 |
| GGAGGGCA | -0.155 |
| CGGTCTAG | -0.0446 |
| CAATTTCA | 0.0349 |

| Sequence | PBM E-score |
| --- | --- |
| AAAATACG | 0.171 |
| GACTCTAC | -0.261 |
| ATTAACCG | 0.295 |
| ATGGATGC | -0.111 |
| CAGTACTG | -0.142 |
| TACTGGAA | 0.128 |
| ACTAGGGC | -0.13 |
| AAGGGGGG | -0.473 |
| ATCCAAAG | 0.0799 |
| CGCCGCCG | -0.141 |
| CACAGCGC | -0.106 |
| GTCCTAAC | -0.0118 |
| CAATCGTA | 0.135 |
| AGAGGTCA | -0.127 |
| CACGGGGC | -0.31 |
| CGCCGTGA | -0.0954 |
| CACGCGTC | -0.0213 |
| GGGTAACA | -0.173 |
| ATATAATA | 0.34 |
| CGCCATGC | -0.152 |
| ATCACTTC | 0.111 |
| AGACCCTC | -0.272 |
| CCCTTAAC | -0.27 |
| GGGGGACA | -0.223 |
| CGCCTTAA | 0.0619 |

| Sequence | PBM E-score |
| --- | --- |
| CGTGGAAG | 0.0416 |
| GGACCTAA | -0.189 |
| CATTCACG | -0.00561 |
| GGTGTGGA | 0.0582 |
| CAGTAACC | -0.00269 |
| ATTCCCCA | -0.0626 |
| AACTTTGT | 0.181 |
| CTTCTGGC | -0.0573 |
| GGTTATCA | -0.0303 |
| CACGGGCA | -0.201 |
| CCTGGACA | -0.144 |
| GTGGTGAA | 0.0056 |
| TGCAACCA | -0.12 |
| CTGCACCA | -0.21 |
| CCAGGCAA | -0.0276 |
| CCTAGTAC | -0.0217 |
| AGCGAGAC | -0.151 |
| CTTTTGTA | 0.249 |
| ACGACGGG | -0.19 |
| CTCATGCC | -0.203 |
| TGGCTCAA | 0.0193 |
| AATCTGAT | 0.16 |
| CCTCTTAC | -0.144 |
| CGTTCAAA | -0.0435 |
| AGTTCCTG | -0.066 |

| Sequence | PBM E-score |
| --- | --- |
| CATTGCGA | 0.0264 |
| GGATTCCC | -0.136 |
| CATTGAGA | 0.186 |
| GGGTTAAC | 0.0754 |
| CCAGGTCA | -0.175 |
| CAGCGTCA | -0.22 |
| AGCAAACA | 0.00569 |
| GCTCTGCC | -0.232 |
| CCCTAGCA | -0.224 |
| GGTTTGCA | -0.00369 |
| AGCTTGGG | -0.251 |
| CTATAGAC | -0.105 |
| GTGTAGAA | 0.0103 |
| CGACGAAG | 0.0307 |
| ACTACCTA | 0.0452 |
| GAAATGAA | 0.237 |
| CAGAATGA | 0.0308 |
| AACCATTG | 0.0228 |
| ATCCTTGC | 0.013 |
| AATTACCC | 0.0843 |
| CCAAAGCA | 0.0707 |
| CCAGAACC | -0.0501 |
| GCCCCGCA | -0.298 |
| CGGCTTTA | 0.0331 |
| ACAGCACA | 0.144 |

| Sequence | PBM E-score |
| --- | --- |
| ACCTGTCT | -0.182 |
| AACTAACG | 0.176 |
| ATCTGTAA | -0.00959 |
| ACTTAGCT | -0.0833 |
| CAATTGAG | 0.0534 |
| CTGCTTGC | -0.0147 |
| GCCTAGGA | -0.121 |
| ACACCCCG | -0.281 |
| ATGGGCAG | -0.114 |
| CCAAACGA | -0.0332 |
| CCCGAAGA | -0.0734 |
| GCGAGAAC | -0.0441 |
| TACGGCCA | -0.0955 |
| AGTCGACC | -0.0708 |
| GCATCCGA | -0.118 |
| AACAGTAG | 0.0504 |
| CGCCCCTA | -0.0706 |
| GTAACACA | 0.0946 |
| CGGACTGA | -0.138 |
| CGTACTGA | 0.122 |
| CAAGAGAA | 0.0456 |
| ACGACGTC | -0.204 |
